In US20240391990A1 (PULMONGENE HONG KONG, published 2024):

T1: TGFβ2 (UniProt P61812 303-414, limits assumed)
T1 sequence (looked up): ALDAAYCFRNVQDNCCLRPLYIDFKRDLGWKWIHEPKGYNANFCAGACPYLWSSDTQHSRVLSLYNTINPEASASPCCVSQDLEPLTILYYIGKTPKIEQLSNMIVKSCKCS

T2: recombinant human AREG (human, UniProt P15514 101-198)
T2 construct: also called amphiregulin
T2 sequence (looked up): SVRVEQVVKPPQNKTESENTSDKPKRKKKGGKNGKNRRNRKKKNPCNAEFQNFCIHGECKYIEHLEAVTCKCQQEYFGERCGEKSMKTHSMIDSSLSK

B1: anti-AREG/TRII bi-functional fusion protein variant 030 (other)
heavy: EVQLVESGGGLVKPGGSLRLSCAASGFTFSSYAMSWVRQAPGKGLEWVSTISTGGSHTYYPESVKGRFTISRDNAKNSLYLQMNSLRAEDTAVYYCARHGYLLYEGYYEWYFDYWGQGTLVTVSSASTKGPSVFPLAPCSRSTSESTAALGCLVKDYFPEPVTVSWNSGALTSGVHTFPAVLQSSGLYSLSSVVTVPSSSLGTKTYTCNVDHKPSNTKVDKRV[omitted - human IgG4 Fc with S228P (EU numbers)]AGGGGSGGGGSGGGGSGGGGSGNNGAVKFPQLCKFCDVRFSTCDNQKSCMSNCSITSICEKPQEVCVAVWRKNDENITLETVCHDPKLPYHDFILEDAASPKCIMKEKKKPGETFFMCSCSSDECNDNIIFSEEYNTSNPD
VL: DIVMTQSPDSLAVSLGERATINCKSSQSVDYEGHSFLNWYQQKPGQPPKLLIYAASNRESGVPDRFSGSGSGTDFTLTISSLQAEDVAVYYCQQSTENPPYTFGQGTKLEIK
notes: also called 17-residue deletion
B2: anti-AREG/TRII bi-functional fusion protein variant 010 (other)
heavy: EVQLVESGGGLVKPGGSLRLSCAASGFTFSSYAMSWVRQAPGKGLEWVSTISTGGSHTYYPESVKGRFTISRDNAKNSLYLQMNSLRAEDTAVYYCARHGYLLYEGYYEWYFDYWGQGTLVTVSSASTKGPSVFPLAPCSRSTSESTAALGCLVKDYFPEPVTVSWNSGALTSGVHTFPAVLQSSGLYSLSSVVTVPSSSLGTKTYTCNVDHKPSNTKVDKRV[omitted - human IgG4 Fc with S228P (EU numbers)]AGGGGSGGGGSGGGGSGGGGSGIPPHVQKSVNNDMIVTDNNGAVKFPQLCKFCDVRFSTCDNQKSCMSNCSITSICEKPQEVCVAVWRKNDENITLETVCHDPKLPYHDFILEDAASPKCIMKEKKKPGETFFMCSCSSDECNDNIIFSEEYNTSNPD
VL: B1 VL
notes: Anti-AREG antibody whose heavy chain C-terminus is fused through (G4S)4G to the TRII ectodomain; Produced in 293-F cells; also called anti-AREG/TRII variant 010

Columns and labels:
[1] = molecular target: T1, TGFβ2; experiment: SPR, Biacore T200, variant captured on Protein A/G CM5 chip, ligand injected
[2] = molecular target: T2, recombinant human AREG; experiment: as above
[3] = molecular target: recombinant human TGFβ1 (human, UniProt P01137 in part); experiment: as above
Chain of UniProt P01137 (P01137 279-390 limits assumed): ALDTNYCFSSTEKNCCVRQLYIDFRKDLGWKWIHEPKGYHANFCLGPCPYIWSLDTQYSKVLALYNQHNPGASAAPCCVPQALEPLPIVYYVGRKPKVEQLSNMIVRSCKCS

[4] = molecular target: T2, recombinant human AREG; experiment: cell-based or functional assay

| Binder | Kd [1] | koff [1] | kon [1] | Kd [2] | koff [2] | kon [2] | Kd [3] | koff [3] | kon [3] | IC50 (read off the curve), SRE-luciferase reporter induced by AREG 50 nM [4] |
| --- | --- | --- | --- | --- | --- | --- | --- | --- | --- | --- |
| B1 | 6.71 nM | 0.901 s⁻¹ | 1.34e+08 M⁻¹ s⁻¹ | 0.0359 nM | 0.000614 s⁻¹ | 1.7e+07 M⁻¹ s⁻¹ | 0.000718 nM | 5.94e-05 s⁻¹ | 8.28e+07 M⁻¹ s⁻¹ | ~4 nM |
| B2 | 0.65 nM | 0.0124 s⁻¹ | 1.91e+07 M⁻¹ s⁻¹ | 0.0356 nM | 0.000687 s⁻¹ | 1.93e+07 M⁻¹ s⁻¹ | 0.000746 nM | 3.5e-05 s⁻¹ | 4.69e+07 M⁻¹ s⁻¹ |  |
